Measurements reported in paper PMC4336329 (PLoS ONE, 2015).
In all, about 310,000 compounds went through this assay and about 2,200 (0.71%) showed an effect of 50% or more. The effect is printed as a negative number. The list shows a part of the results.

Each compound was assayed against human ether-à-go-go-related gene (hERG) potassium channel (human, UniProt Q12809) (assay: primary screen, population patch clamp on CHO cells stably expressing hERG).
human ether-à-go-go-related gene (hERG) potassium channel, sequence (Q12809 whole entry, looked up): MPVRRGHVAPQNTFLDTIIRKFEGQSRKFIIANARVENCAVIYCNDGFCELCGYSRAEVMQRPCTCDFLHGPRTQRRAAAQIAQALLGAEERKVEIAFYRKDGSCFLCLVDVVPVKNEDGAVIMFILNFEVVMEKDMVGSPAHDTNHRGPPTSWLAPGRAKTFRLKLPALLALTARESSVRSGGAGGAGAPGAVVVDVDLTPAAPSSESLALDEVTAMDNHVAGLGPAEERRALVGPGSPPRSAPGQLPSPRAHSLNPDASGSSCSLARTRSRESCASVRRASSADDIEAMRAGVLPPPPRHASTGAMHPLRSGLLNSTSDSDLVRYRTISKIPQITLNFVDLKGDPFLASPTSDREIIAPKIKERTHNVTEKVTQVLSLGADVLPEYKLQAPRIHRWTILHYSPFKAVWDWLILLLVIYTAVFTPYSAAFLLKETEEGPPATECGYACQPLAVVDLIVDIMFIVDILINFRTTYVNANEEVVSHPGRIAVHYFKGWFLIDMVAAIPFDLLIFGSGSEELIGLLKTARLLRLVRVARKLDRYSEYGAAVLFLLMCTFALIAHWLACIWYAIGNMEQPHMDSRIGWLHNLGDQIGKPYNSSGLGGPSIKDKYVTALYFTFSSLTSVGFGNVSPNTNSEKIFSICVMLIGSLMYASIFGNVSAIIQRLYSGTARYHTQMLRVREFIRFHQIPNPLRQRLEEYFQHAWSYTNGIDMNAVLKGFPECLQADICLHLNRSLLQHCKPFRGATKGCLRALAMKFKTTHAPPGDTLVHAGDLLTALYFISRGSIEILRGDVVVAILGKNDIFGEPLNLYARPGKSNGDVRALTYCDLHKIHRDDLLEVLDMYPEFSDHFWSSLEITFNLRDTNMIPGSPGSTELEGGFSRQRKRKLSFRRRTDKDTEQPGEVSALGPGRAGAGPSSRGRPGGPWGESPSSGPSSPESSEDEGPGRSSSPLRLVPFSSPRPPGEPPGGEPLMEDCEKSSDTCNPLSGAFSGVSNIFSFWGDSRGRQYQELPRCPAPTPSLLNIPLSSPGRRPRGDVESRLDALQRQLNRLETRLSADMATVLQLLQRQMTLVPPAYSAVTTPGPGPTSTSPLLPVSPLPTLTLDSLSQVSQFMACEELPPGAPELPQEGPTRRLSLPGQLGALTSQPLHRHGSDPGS

Compound | hERG current change (%, negative = inhibition) at 1uM [%]
COc1ccc(C2CC(c3ccccc3OC(C)=O)=NN2C(C)=O)cc1 (stereo not shown) | 5.35
Cn1cc(C(=O)OCC(=O)N2CCCCC2)c2ccccc21 | 16
Cc1ncoc1C(=O)N1CCCC(N2CCN(c3cccc(C(F)(F)F)c3)CC2)C1 (stereo not shown) | -2.29
O=C(NC1=C(Nc2ccc(F)cc2)C(=O)c2ccccc2C1=O)c1ccc(Cl)cc1 | 15.1
CC(Cc1cccs1)NC(=O)Nc1ccccc1 (stereo not shown) | 9.58
COc1cc(/C=C/C(=O)OCC(=O)c2ccc3c(c2)NC(=O)CO3)ccc1OC(F)F | 8.13
COc1ccc(-n2cnnc2SCCC#N)cc1 | 6.01
COc1cccc(NC(=O)N2CCN(C(=O)C(Cc3ccc(OC)c(OC)c3)NC(C)=O)CC2)c1 (stereo not shown) | 2.72
O=C(O)c1ccccc1SCC(=O)N1CCCCC1 | 3.22
O=C(Nc1ccccn1)c1cccc(S(=O)(=O)N2CCCC2)c1 | 5.14
O=C(Nc1cccnc1)c1ccc2c(c1)OCO2 | 12.2
CCOC(=O)C1=C(C)N=C2c3ccccc3C(=O)C2C1c1ccccc1 (stereo not shown) | 4.87
CC(=O)N1CCN(c2ccc(Oc3nnnn3-c3ccccc3)cc2)CC1 | -13.8
c1ccc2c(CCNc3ncnc4nc[nH]c34)cccc2c1 | -0.797
Cc1ccc2[nH]c(O)c(N=O)c2c1 | 7.8
CCOc1ccc(NC(=O)CN(c2ccc(OC)c(OC)c2)S(=O)(=O)c2ccc(C)cc2)cc1 | 17.1
CCN1CCN(C(=O)C2CCC(=O)N(CCCN3CCCC3=O)C2)CC1 (stereo not shown) | 3.96
COc1ccc(C2C(C#N)=C(N)OC3=C2C(=O)CC(C)(C)C3)cc1 (stereo not shown) | 12.7
COc1cc(CC(=O)NCc2ccc3c(c2)OCO3)cc(OC)c1OC | 15
CCc1ccc2c(c1)/C(=C/C(=O)c1cccs1)C(=O)N2 | 12.8
Cc1cc(C(=O)N2CCCC(N3CCN(c4cccc(C(F)(F)F)c4)CC3)C2)c(C)o1 (stereo not shown) | 5.61
O=C(O)CSc1cccc2cccc(C(=O)O)c12 | 7.81
CC(C)Nc1nc(NC(C)C)nc(OCCOC(=O)c2ccccc2)n1 | -3.48

Compound | hERG current change (%, negative = inhibition) at 1uM [%]
CC1CCCN(C(=O)c2ccc(NS(=O)(=O)c3ccc4[nH]c(=O)[nH]c4c3)cc2)C1 (stereo not shown) | 12.5
COc1cc(NC(=S)NN2CCN(C)CC2)cc(OC)c1 | 12.3
CCOC(=O)C1CCN(C(=O)c2cc(OCC)c(OCC)c(OCC)c2)CC1 | 0.754
O=C(C1=C(O)C(=O)N(Cc2ccco2)C1c1ccccc1F)c1cccs1 (stereo not shown) | 15.4
CC(=O)NCC(=O)N(C)C(C(=O)Nc1ccc(C(C)C)cc1)c1ccccc1 (stereo not shown) | 8.76
CCOC(=O)N1CCN(c2cc(N3CCOCC3)c(F)cc2[N+](=O)[O-])CC1 | 5.62
CC1=CC(C)(C)NC(=S)N1c1cccc(C)c1 | 4.71
COCC1CCN(Cc2cn(C)nc2-c2cccc(Cl)c2)C1 (stereo not shown) | 4.84
COC(=O)C1CCN(CCCOc2ccc(CN3CCN(c4ccc([N+](=O)[O-])cc4)CC3)cc2)CC1 | -27.7
CC(=O)Nc1ccc(CN2CCc3c([nH]c4ccccc34)C2c2ccccn2)cc1 (stereo not shown) | -11.2
COC(=O)Cn1c(=NC(=O)CSC(C)=O)sc2ccccc21 | 4.33
CCOC(=O)CC(=O)CSc1nc2c(cc1C#N)CCC2 | 12.3
COC(=O)[C@H](CCSC)NC(=O)NC1CC1 | 18.4
NC(=O)CSc1nnc(NC(=O)c2ccc3ccccc3c2)s1 | -0.774
Cn1c(N)c(C(=O)CSc2nnc(-c3c[nH]c4ccccc34)n2C2CC2)c(=O)[nH]c1=O | 6.25
Cc1cc(C)cc(Nc2cnn(C34CC5CC(CC(CC(=O)O)(C5)C3)C4)c(=O)c2Cl)c1 | 7.86
CC(C)Oc1ccc(C(=O)Nc2ccc(S(=O)(=O)N3CCN(C)CC3)cc2)cc1 | 12.2
CC1(C)Cc2nc(N3CCCC3)c(C#N)cc2CO1 | -1.56
Cn1c(CN2CCOCC2)nc2cc(NC(=O)c3ccccc3Cl)ccc21 | 4.59
CN(Cc1nc2ccccc2c(=O)[nH]1)C(=O)c1ccc(NC(=O)CSc2nnnn2C)cc1 | 7.58
COc1ccc(CSCC(=O)N/N=C/c2ccc(OCC(=O)N3CCCCC3)cc2)cc1 | 17
CCOC(=O)N1CCN(C(=O)CCn2nc(-c3ccc(Cl)cc3)ccc2=O)CC1 | -24.9
COC(=O)C1=NN(C(=O)c2cccc(Cl)c2)C(O)(C(C)(C)C)C1 (stereo not shown) | 10.4
